Consider six substances from article PMC10480498.

Amino acid sequences for entries named in this document (tags omitted).
UniProt P43403: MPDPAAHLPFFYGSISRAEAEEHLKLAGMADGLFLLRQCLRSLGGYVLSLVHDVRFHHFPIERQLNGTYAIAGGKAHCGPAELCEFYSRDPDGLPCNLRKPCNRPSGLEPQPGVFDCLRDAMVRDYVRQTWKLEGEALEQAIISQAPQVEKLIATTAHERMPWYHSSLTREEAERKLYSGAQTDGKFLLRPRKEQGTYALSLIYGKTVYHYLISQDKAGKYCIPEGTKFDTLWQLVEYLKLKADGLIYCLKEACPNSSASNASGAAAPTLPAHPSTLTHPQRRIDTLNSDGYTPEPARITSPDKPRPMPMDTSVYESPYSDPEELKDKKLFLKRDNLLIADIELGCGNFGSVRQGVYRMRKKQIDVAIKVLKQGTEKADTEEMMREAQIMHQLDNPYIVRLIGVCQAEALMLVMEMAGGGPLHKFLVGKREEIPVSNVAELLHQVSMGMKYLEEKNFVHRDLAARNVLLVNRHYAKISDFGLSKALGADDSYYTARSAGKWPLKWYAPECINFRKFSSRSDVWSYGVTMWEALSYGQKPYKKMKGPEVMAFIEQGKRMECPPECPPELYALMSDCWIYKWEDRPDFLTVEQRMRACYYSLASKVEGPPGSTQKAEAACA
UniProt P06239: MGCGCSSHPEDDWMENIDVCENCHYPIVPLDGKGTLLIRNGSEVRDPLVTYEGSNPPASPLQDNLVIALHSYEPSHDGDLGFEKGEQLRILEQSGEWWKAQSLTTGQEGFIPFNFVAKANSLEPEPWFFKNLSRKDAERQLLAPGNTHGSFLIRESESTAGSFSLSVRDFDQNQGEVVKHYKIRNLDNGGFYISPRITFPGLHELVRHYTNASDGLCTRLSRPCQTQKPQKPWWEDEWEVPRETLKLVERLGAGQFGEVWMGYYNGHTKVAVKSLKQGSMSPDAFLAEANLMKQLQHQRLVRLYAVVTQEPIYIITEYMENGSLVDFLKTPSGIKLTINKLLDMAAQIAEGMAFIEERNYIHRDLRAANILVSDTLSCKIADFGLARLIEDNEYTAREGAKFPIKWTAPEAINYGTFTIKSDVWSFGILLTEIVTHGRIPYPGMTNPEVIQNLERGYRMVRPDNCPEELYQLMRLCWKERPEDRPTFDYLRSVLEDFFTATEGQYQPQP

No constants are given. Whether binding was seen depends on the method and setting. In cells and extracts the contact can be indirect. Some entries that bind do so weakly or less than the wild type. For some assays here: Tags and fused reporters may be left off the sequences shown.

Experiment [1] concerns the target T1, Flag-INPP5E (UniProt Q9NRR6).
T1 sequence: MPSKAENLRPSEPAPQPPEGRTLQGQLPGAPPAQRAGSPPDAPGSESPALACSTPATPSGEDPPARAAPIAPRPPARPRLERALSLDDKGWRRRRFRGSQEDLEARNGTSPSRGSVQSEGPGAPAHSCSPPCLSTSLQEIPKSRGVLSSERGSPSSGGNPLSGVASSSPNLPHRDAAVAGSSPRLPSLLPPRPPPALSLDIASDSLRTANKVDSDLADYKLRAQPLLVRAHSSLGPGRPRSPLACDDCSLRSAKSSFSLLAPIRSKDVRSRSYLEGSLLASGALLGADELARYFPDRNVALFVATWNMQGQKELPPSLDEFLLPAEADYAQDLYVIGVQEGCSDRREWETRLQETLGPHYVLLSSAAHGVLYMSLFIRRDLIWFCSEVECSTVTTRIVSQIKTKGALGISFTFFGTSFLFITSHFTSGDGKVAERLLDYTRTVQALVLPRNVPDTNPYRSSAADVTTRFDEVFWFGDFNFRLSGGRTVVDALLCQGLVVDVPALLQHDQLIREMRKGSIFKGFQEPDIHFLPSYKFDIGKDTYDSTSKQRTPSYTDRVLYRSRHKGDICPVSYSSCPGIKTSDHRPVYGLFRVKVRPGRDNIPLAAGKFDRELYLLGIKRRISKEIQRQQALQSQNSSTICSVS
The experiment in a line: co-IP; HEK293T transfected with CD3ζ-GFP, Lck, ZAP-70-Myc and Flag-INPP5E together; lysates (20 mM Tris-HCl pH 7.5, 150 mM NaCl, 1 mM EDTA, 1% NP-40) precipitated with anti-Flag antibody and protein G agarose; western blot.

The target in experiment [2] is T1, Flag-INPP5E. The experiment in a line: co-IP; HEK293T co-expressing Flag-INPP5E and either CD3ζ, ZAP-70 or Lck separately; lysates precipitated with anti-Flag antibody and protein G agarose; western blot. In general terms: Immunoblotting shows a protein as a band on a membrane.
The target of experiment [3] is T2, inositol polyphosphate-5-phosphatase E (INPP5E), endogenous in Jurkat T cells (human (endogenous in Jurkat)) (UniProt Q9NRR6).
T2 sequence: T1 sequence
Nature of the experiment: co-IP; Jurkat T cells activated by crosslinking anti-CD3/CD28 for 2-10 min; lysates (Tris-HCl pH 7.5, 150 mM NaCl, 1 mM EDTA, 1% NP-40) precipitated with anti-INPP5E antibody and protein G agarose at 4 °C overnight; immunoblot; IgG control.

Experiment [4] deals with T3, Flag-INPP5E C-terminal region (amino acids 288–644) (UniProt Q9NRR6).
T3 sequence: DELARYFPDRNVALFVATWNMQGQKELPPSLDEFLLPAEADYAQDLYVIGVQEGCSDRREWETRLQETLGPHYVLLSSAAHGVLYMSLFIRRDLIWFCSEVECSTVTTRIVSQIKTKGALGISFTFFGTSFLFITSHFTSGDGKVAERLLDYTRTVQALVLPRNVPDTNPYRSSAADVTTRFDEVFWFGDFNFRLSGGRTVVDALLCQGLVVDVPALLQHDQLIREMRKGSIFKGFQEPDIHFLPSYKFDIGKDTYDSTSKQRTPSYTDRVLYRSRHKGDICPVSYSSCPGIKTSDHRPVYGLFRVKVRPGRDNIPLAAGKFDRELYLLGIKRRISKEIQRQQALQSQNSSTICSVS
The experiment in a line: co-IP; INPP5E truncations (1-289, 288-644) tested for pulling down CD3ζ-GFP (Supplementary Fig. 3b); cells and antibody not given.

For experiment [5], the target named is T4, Flag-INPP5E N-terminal region (amino acids 1–289) (UniProt Q9NRR6).
T4 sequence: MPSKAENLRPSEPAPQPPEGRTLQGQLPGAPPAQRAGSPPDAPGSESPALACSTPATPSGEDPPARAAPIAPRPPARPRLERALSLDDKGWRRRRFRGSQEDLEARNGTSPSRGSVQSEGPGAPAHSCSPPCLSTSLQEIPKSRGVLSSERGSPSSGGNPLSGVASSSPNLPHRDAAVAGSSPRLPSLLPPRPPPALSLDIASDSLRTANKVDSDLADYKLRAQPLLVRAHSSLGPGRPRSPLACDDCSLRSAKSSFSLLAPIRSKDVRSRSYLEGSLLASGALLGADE
The description is as above.

In the case of “ZAP-70-Myc (from UniProt P43403 1-619) (enzyme)”, the binding result in the experiment with Flag-INPP5E [1] and with Flag-INPP5E [2] was “binds” each time.

Take “Lck (expressed in HEK293T) (from UniProt P06239 1-509) (enzyme)”: the binding result in the experiment with Flag-INPP5E [1] and with Flag-INPP5E [2] was “binds” throughout.

As to “Lck, endogenous in Jurkat T cells (from UniProt P06239 1-509) (enzyme)”, the binding entry in experiment [3] is on record as “binds”.

In the case of “ZAP-70 (zeta-chain-associated protein kinase 70), endogenous in Jurkat T cells (from UniProt P43403 1-619) (enzyme)”, the binding entry in experiment [3] was “binds”.

As for “CD3ζ, endogenous in Jurkat T cells (from UniProt P20963-1 22-164) (receptor)”, the binding result in experiment [3] was “binds”.

“CD3ζ-GFP (from UniProt P20963-1 22-164) (receptor)”: the binding result with Flag-INPP5E [1] is “binds”; in the experiment with Flag-INPP5E [2], “binds”; in experiment [4], “binds”; in experiment [5], “no binding”.
